Results: paper PMC4336329 (PLoS ONE, 2015)
Among all 310,000 compounds or so, about 14,000 (4.5%) showed an effect of 50% or more. Effects have a minus sign here. This is one part of the list.

These compounds were tested against human ether-à-go-go-related gene (hERG) potassium channel (human, UniProt Q12809) (assay: primary screen, population patch clamp on CHO cells stably expressing hERG).
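Further: peak tail current of the secondary pulse compared with the same well before compound.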

Chain of human ether-à-go-go-related gene (hERG) potassium channel (Q12809 whole entry, looked up): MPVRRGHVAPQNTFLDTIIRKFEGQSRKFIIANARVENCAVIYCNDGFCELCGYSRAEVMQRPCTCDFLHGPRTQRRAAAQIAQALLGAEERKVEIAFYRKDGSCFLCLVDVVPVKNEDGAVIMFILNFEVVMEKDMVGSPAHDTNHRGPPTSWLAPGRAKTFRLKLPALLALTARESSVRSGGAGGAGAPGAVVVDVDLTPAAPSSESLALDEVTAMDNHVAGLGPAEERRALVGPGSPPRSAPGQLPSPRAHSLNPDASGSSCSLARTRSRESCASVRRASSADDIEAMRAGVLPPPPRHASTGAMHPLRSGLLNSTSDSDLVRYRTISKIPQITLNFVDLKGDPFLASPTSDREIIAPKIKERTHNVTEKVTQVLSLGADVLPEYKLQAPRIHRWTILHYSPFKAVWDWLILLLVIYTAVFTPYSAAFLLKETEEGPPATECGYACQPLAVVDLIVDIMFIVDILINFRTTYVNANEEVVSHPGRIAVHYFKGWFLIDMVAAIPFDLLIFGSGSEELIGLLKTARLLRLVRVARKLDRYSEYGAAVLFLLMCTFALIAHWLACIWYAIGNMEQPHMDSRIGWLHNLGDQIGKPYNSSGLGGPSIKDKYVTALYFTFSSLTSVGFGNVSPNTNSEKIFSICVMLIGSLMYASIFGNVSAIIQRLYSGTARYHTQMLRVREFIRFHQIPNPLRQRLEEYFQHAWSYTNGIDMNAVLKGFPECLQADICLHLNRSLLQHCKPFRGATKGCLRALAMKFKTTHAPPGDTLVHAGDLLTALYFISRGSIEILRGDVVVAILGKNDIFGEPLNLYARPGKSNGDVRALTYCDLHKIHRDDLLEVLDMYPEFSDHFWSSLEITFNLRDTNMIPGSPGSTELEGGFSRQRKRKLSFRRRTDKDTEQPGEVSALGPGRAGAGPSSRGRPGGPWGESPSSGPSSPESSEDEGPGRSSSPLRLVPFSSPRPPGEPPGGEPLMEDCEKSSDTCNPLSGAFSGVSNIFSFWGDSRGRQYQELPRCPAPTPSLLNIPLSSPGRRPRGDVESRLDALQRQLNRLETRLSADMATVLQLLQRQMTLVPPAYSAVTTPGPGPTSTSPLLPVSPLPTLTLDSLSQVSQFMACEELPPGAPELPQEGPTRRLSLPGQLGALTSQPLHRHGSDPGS

Compound | hERG current change (%, negative = inhibition) at 10uM [%]
COc1ccc(CCNC(=O)CCS(=O)(=O)c2ccc3c(c2)NC(=O)CS3)cc1OC | 4.12
COC(=O)CN1C(=O)N(c2ccccc2)C(N(O)C(=O)Nc2ccccc2)C1(C)C (stereo not shown) | 3.63
Cc1ccc(-c2nnn(CC(=O)N(Cc3cccs3)C(C(=O)NC3CCCC3)c3ccncc3)n2)cc1 (stereo not shown) | -13
O=C(OCN1C(=O)c2ccccc2C1=O)c1cccc(OC(F)F)c1 | 11.9
CCOc1ccccc1CN1CCN(CCCc2ccccc2)CC1CCO (stereo not shown) | -64.9
N#CC1=C2SCN(c3ccccc3)CN2C(=O)CC1c1c(Cl)cccc1Cl (stereo not shown) | 3.11
CCC1(c2ccc(F)cc2)NC(=O)N(CC(=O)N(CCC#N)c2ccccc2)C1=O (stereo not shown) | -3.58
Cc1c(Cl)cccc1NCC(=O)NN=C1CCCC1 | 25.2
CCN(Cc1ccncc1)C(=S)Nc1ccccc1 | -3.22
COc1ccc(C)cc1S(=O)(=O)N(CC(=O)Nc1cccc([N+](=O)[O-])c1)c1ccc(C)c(C)c1 | -0.952
Cc1noc(C)c1C(=O)N1CCc2ccccc21 | -0.274
O=C(NCc1ccncc1)C1CCN(S(=O)(=O)c2cc(Cl)ccc2Cl)CC1 | -18.9
O=C(Nc1nc(-c2nc3ccccc3s2)cs1)C1CC1 | 1.21
CCOc1ccc2nc(NC(=O)CC3Oc4ccccc4NC3=O)sc2c1 (stereo not shown) | 8.37
COc1ccccc1OCC(=O)Nc1ccc(N2CCOCC2)cc1N1CCOCC1 | -23.9
C=CCNC(=O)C1CCN(c2nc(C)cc(-c3ccccc3)n2)CC1 | -51.3
O=S(=O)(NC12CC3CC(CC(C3)C1)C2)c1ccc(F)cc1 | -6.37
CNC(=O)/C(=C\C=C\c1ccccc1)NC(=O)c1ccc([N+](=O)[O-])cc1 | -77.6
COCCNC(=S)N1CCN(c2nc(-c3ccc(F)cc3)cs2)CC1 | 11.6
O=C(O)c1cccc(N2C(=S)N=C(Nc3ccccc3)C23CCCCC3)c1 | 1.22
CNc1nc(NCCOC23CC4CC(CC(C4)C2)C3)nc(OCC(F)(F)F)n1 | 8.55
COc1cccc(CC2(CO)CCCN(Cc3ccc(OC(F)F)cc3)C2)c1 (stereo not shown) | -68.6
Cc1cccc(N2CCN(C(=O)NC(C)c3ccc(F)c(F)c3)CC2)c1C (stereo not shown) | -13
COc1ccc(C2/C=C\CN(C(=O)C3CCCC3)[C@H](Cc3ccccc3)C(=O)N2Cc2ccc(F)cc2)cc1 (stereo partly shown) | 12.8
CCCC(O)(c1ccc(OC)cc1)C(CN1CCOCC1)c1ccc(Cl)cc1.Cl (stereo not shown) | -20.5
CCOC(=O)N1CCN(S(=O)(=O)c2ccc(C(=O)N(CCCN(C)C)c3nc4ccc(Cl)cc4s3)cc2)CC1.Cl | -58.4
COc1ccccc1Cn1c(=S)[nH]c2ccccc2c1=O | 32.7
O=C(Nc1ccc(O)cc1)c1ccc(NC(=O)c2cccs2)cc1 | 24.2

Compound | hERG current change (%, negative = inhibition) at 10uM [%]
CC(=O)Nc1ccc(S(=O)(=O)NCc2ccc3c(c2)cc(C)n3C)cc1 | -18.3
COc1cccc(NC(=O)N2C3CCCC2CC(NC(=O)C(C)(C)C)C3)c1 (stereo not shown) | 2.46
CN(CCC(=O)Nc1ccc(Cl)cc1)Cc1ccccc1.Cl | -39.9
CC1CCC(NC(=O)c2cc(S(=O)(=O)N(C)C)ccc2N2CCCC2)CC1 (stereo not shown) | 4.47
CC(OC(=O)CN1C(=O)c2ccccc2C1=O)C(=O)NC1CCCC1 (stereo not shown) | -11.3
CCOC(=O)N(NC(=O)C(O)(C(C)C)C(C)C)c1ccccc1 | 13.5
O=c1c2c3c(sc2nc2n1CCCCC2)CCC3 | -0.34
CC(C)CCC(C(=O)NC(C)c1ccccc1)C(=O)NC(C)c1ccccc1 (stereo not shown) | 15.1
Cc1ccc(S(=O)(=O)/N=C2\CN(C)C(=O)N2C)cc1 | 2.81
O=S(=O)(Cc1ccccc1Cl)N1CCCC1 | -2.74
CCOc1ccccc1C(=O)Nc1cc2c(cc1N1CCCC1)n(CC)c(=O)n2CC | -42
COc1ccc(C)cc1NC(=O)N1CCCc2ccccc21 | -12.7
Cc1ccc(S(=O)(=O)N2CCN(C(=O)CCn3nc(C)c(C)c3C)CC2)cc1C | -4.21
Cc1cc2nnc(SC3CCCCN(C(=O)c4ccc(F)cc4)C3=O)n2c2ccccc12 (stereo not shown) | -13.2
C=CCn1c(SCC(=O)c2ccc(CNC(C)=O)o2)nc2scc(C3CC3)c2c1=O | -11.1
N#Cc1nc(Nc2cccc(Cl)c2)c2ncn(C3CCCC3)c2n1 | 8.12
CC(C)(C)C(=O)Nc1ccccc1N1CCN(c2ccc(F)cc2)CC1 | 16.9
CC1CN(S(=O)(=O)c2cccc(C(=O)Nc3ccc4c(c3)CCC4)c2)CC(C)O1 (stereo not shown) | -13.4
CC(=O)CC1(C)OC(N)=C(C#N)C1(C#N)C#N (stereo not shown) | 4.97
Cc1cccc(N(CC(=O)NC2CC3CCC2C3)S(=O)(=O)c2ccccc2)c1 (stereo not shown) | -21.1
COc1ccc2c(c1)c(C(=O)C(C)N1CCCCC1)c(C)n2C (stereo not shown) | 17.2
COc1cc(NCCC(=O)c2cccs2)c(OC)cc1Cl | -12.4
O=S(=O)(/C=C/c1ccccc1)N1CCN(c2ccc(F)cc2)CC1 | -1.92
O=C(Cc1ccc(-n2c(=O)c3sccc3n(CC(=O)Nc3ccccc3F)c2=O)cc1)NCc1ccco1 | 1.05
C/C(=N\NC(N)=O)C1CC(CC(C)C)C(=O)O1 (stereo not shown) | 24.8
Cn1c2ccccc2c2cnn(CC(=O)N3CCCCC3)c(=O)c21 | -10.4
N#CCCn1cc(C(=O)CN2C(=O)NC3(CCCCCC3)C2=O)c2ccccc21 | -6.16
